# Reference: the supplement of paper PMC10126150
# Sequences with one replicate were seen in a single cluster, so their values are uncertain.
# System: ATP
# Test: switch fluorescence ratio, 500 uM ATP over buffer (Cy3 cluster intensity, sum of 5 cycles each) (fold (ratio)); higher = stronger signal-on switching upon ATP binding; sequences stand for … in TCGTCGGCAGCGTCAGATGTGTATAAGAGACAGTTTTTTTTTTTTTTTTTTTTTTTTT…TC
# Conditions: aptamer strand: ATP DNA aptamer (quencher-CACCTGGGGGAGTATTGCGGAGGAAGG + anchor), 100 nM annealed; ATP concentration: 500 uM; one replicate
# Summary of the method: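 The quencher-labelled ATP aptamer, at 100 nM, was annealed to Cy3-labelled switching-strand clusters on a modified Illumina MiSeq flow-cell. The clusters were imaged in selection buffer, then after 15 min with 500 uM ATP at 22 °C, and this buffer/ATP cycle ran five times with NaOH stripping and re-annealing between runs. Per-cluster fluorescence ratios, summed target-cycle over summed buffer-cycle Cy3 intensity, were averaged per switch-domain sequence. Clusters outside 100-1000 RFU were excluded.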
# 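Note: ATP exposure 15 min at 22 °C before imaging.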
row,Sequence,switch fluorescence ratio
1,CCCTTGGGGT,4.31
2,CAGGTGCGTG,1.02
3,TCAATGAATG,0.99
4,TCCTTGAGAT,1.02
5,TAAACTTAGC,0.978
6,GATTTTCTAA,0.995
7,GATTACTGCC,1.18
8,GCGGTTTGCC,0.94
9,TTTTGGGG,0.998
10,AAGATATCTA,0.984
11,ATCCTGTGCA,1.2
12,TGAACTAT,1.02
13,ATCCGCAAGG,3.86
14,AAAATCTCAT,0.957
15,CGGCAAATCA,1.06
16,CCTGCCCGAA,1.29
17,ACGGTGCATA,1.12
18,TGTGGGGTCA,0.995
19,GCTTCGAACC,1.12
20,CTGCAACTGG,2.41
21,TAAAGAATTC,0.958
22,GAGAGTCATG,1.03
23,TACCGAAGAT,1.99

row,Sequence,switch fluorescence ratio
1,GACGCCTGTC,1.12
2,GTTGAGGGAG,1
3,ATTTAATTCC,1.08
4,GGCTTTAAGG,1
5,TTCGAGCCAT,2.36
6,AAAAATATGG,1.05
7,CGTTAATTGT,1.02
8,GGGGAACCAC,1.08
9,ACCATGGCGT,0.997
10,CGACCTATAA,1.56
11,TGCCGGATCC,0.937
12,GACGGGCGAT,1.18
13,GGGATTTCCT,1.06
14,CCTGAAGATG,1.06
15,CTAAGATGGA,0.987
16,GGAACATACG,1.29
17,ACATCAAGTA,1.04
18,TAGGCTCAG,1.02
19,TCGGGACCTG,1.04
20,CAGTCGCGAC,0.994
21,CTAGGAATAT,0.992
22,TTCACACGAG,1.02
23,ATGTACTGCA,1.04

row,Sequence,switch fluorescence ratio
1,TTTGAAGTGC,1.41
2,CCGGGGCCAC,1.16
3,GGGGGCAGTA,1.02
4,AACAGACTCG,0.945
5,ATCGGGCAAA,0.979
6,TGCTTTGTTT,1.01
7,CGACATTTAG,1.02
8,AGGCGTCG,1.06
9,TTGCTTAAG,1
10,TGTGTTACTA,0.989
11,TATGCATGCG,1
12,GCGTCATGTA,1.03
13,TTGCGTTTGT,1
14,TACGCAACAA,2.18
15,TCTCCGACGT,2.54
16,GTGACAAGGG,0.974
17,CAAAGTCTAT,1.01
18,CCTTTGGCTG,1.04
19,TTGTGGAAGG,1.04
20,TTAGGTGTAC,1.96
21,TAACAGTAAA,0.999
22,CTCGGGAGAG,1.01
23,TCGACAACAG,0.994

row,Sequence,switch fluorescence ratio
1,ATGATCAGT,0.996
2,ATGCAGCCC,1.04
3,GGAAGGGGAG,1.02
4,GATGCTAGGG,1
5,TTGGCAGAGT,1.01
6,AAGTGCATAG,1.03
7,AAGTCCTAT,0.997
8,GTAGTGCTTA,0.974
9,CATCAGGCCA,1.04
10,ACCGTTGGTG,0.998
11,TCTGGAGCGG,1.15
12,GCAAGAATCG,1.2
13,AACACCTATA,1.01
14,GTTAAAGGAG,1.03
15,GTTCACTTGA,1.03
16,CCATGGGACG,1
17,ATCATTGCTA,0.922
18,CGACCGGGAG,1.02
19,CCCACATATG,1
20,AGGCCCTAGA,0.953
21,TGTTAGTAGG,1.02
22,GTTGTAAACT,1.27
23,TAAAAATTCT,1.06

row,Sequence,switch fluorescence ratio
1,GTGTAATGTG,1.04
2,GAATAGAGTG,0.944
3,TGGGCCTAGT,0.993
4,TGGGGAACTC,1.05
5,GAGCTCAGTC,1.01
6,TTACCTGGTG,1.84
7,CAGAAAGTCG,0.991
8,GATGGGCAAA,0.973
9,TGTTGTATCA,0.958
10,CTCAGTAACA,1.15
11,CTGCGGTTCG,1.05
12,TCCTGATTAG,0.965
13,CAGTCATAGT,0.921
14,TATATAATTG,0.981
15,AGGGCGACGT,1.17
16,TGAAACCAAG,1.11
17,AATAAGTTCC,1.1
18,GAGGACTTG,1.09
19,AAGTTATGGA,1.08
20,GGGGACAA,0.986
21,GGAGTAGGCC,0.923
22,TTAATATGTG,1
23,ATCGCAGAGC,1.06

row,Sequence,switch fluorescence ratio
1,AAGCGTCATT,1.04
2,ACGTCCGTGC,1.18
3,GTTAAAGGC,0.948
4,TTCAGAATGA,1
5,GGATGGGTCC,1
6,CGGCATTCCG,0.965
7,GCCTACTCAG,1.05
8,GGTGGAGGTG,1.09
9,TGGGACCCA,0.956
10,TACGCCCTTG,1.06
11,CCTGTTTGCC,1.02
12,CAAGTAACGA,1
13,GTATTGTGTT,1.02
14,GATCTGGAGG,1.03
15,GTTCTCAGGC,0.97
16,TGCATTATCG,1.05
17,AGGGAGGCGC,1.13
18,TTGGTGATCC,0.985
19,GATTGCCATC,1.02
20,GTGGTTTCAG,1
21,GCAAGGACG,1.01
22,CTTGCAGAAT,0.965
23,GGTTGCGCAT,1.04

row,Sequence,switch fluorescence ratio
1,CACATAGGTG,1.56
2,GGAGAATCTT,1.03
3,GAATTCCGTC,0.978
4,TTCGTGAAAT,1.01
5,CTCTTAGAGT,0.937
6,ATTCTGTATA,1.04
7,TCTATGTCAG,0.973
8,GCTTAGTGCC,1.02
9,GGCTGTACTG,0.976
10,CCTTATAATA,1.01
11,GCGGGGTGGC,1.04
12,GCGCCTGGAG,1
13,GTATTATACG,1.04
14,CCATCATCGT,0.989
15,GCTGTGTAAG,0.971
16,CTGAGACTAG,1
17,TTGCCCTTGT,0.973
18,TAGTTCGGAA,1.04
19,CAATCATACG,1.02
